About 230 (0.21%) of roughly 110,000 compounds showed an effect of 50% or more. The list shows a part of the results.
Target: DPAP1 (Plasmodium falciparum, UniProt Q8IIJ9)
Test: primary screen, percent inhibition; read by cleavage of a fluorogenic dipeptide substrate; higher = more effect of the substance
Parameters: species or system P. falciparum D10 trophozoite lysates; single well
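Further: 30 min substrate incubation versus DMSO and 10 µM JCP410 controls.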

Chain of DPAP1 (Q8IIJ9 whole entry, looked up): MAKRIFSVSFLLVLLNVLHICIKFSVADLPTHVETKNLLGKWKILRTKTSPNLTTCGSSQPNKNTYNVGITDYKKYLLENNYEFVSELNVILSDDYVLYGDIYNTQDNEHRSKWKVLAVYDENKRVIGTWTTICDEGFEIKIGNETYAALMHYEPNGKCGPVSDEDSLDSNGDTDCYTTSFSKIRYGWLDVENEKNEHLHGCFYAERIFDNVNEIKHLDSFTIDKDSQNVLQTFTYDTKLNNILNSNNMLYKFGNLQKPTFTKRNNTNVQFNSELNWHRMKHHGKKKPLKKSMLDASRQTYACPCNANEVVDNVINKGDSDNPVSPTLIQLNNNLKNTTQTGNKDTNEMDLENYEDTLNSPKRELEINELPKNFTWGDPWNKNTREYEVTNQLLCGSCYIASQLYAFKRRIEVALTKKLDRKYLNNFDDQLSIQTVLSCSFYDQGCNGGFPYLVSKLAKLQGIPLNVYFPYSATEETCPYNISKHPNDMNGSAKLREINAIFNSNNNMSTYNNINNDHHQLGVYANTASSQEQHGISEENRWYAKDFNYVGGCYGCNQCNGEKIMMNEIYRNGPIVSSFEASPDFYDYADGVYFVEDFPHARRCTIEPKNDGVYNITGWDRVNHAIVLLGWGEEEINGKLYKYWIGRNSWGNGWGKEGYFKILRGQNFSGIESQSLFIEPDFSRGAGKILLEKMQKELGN

| SMILES | % Inhibition @ 10 uM [%] |
| --- | --- |
| COC(=O)c1cc(S(=O)(=O)N(C)C2CCCCC2)cn1C | -6.59 |
| CC1CCCC(NC(=O)Cn2ncc3c(=O)oc4ccccc4c32)C1C (stereo not shown) | -6.62 |
| CCN1C(=S)NC2CC1(C)Oc1c(Cl)cccc12 (stereo not shown) | -5.31 |
| N#CC1=C(N)Oc2ncnc(O)c2C1c1cccc(F)c1 (stereo not shown) | 0.726 |
| Cc1cccc(CN2C(=O)N/C(=C/c3ccc(O)cc3)C2=O)c1 | 2.01 |
| COc1ccc(C(CC(=O)c2ccccc2)Nc2ccc(Br)cc2)cc1 (stereo not shown) | -1.74 |
| CC(C)C[C@H](NC(=O)c1cc(Br)cc(Br)c1)C(=O)NCC#N | 0.174 |
| CCC(C)N(C)C1CCN(C(=O)CNC(=O)/C=C/c2cccc(Cl)c2)CC1 (stereo not shown) | 0.689 |
| O=C(CSc1ncc(S(=O)(=O)c2ccc(Br)cc2)c(O)n1)NCc1ccccc1 | -1.01 |
| CC1(C)OC2OC(COC(=O)c3ccccc3)C3OC(C)(C)OC3C2O1 (stereo not shown) | -4.24 |
| COCCCN1C(=O)C(O)=C(C(=O)c2ccccc2)C1c1ccc(Cl)cc1Cl (stereo not shown) | -1.49 |
| CC(C)(c1ccccc1)c1ccc(OCC(=O)N2CCOCC2)cc1 | 15 |
| CCN(CC)CCCNC(=O)CS(=O)(=O)Cc1nc(-c2ccc(C)cc2)oc1C | -5.58 |
| O=C(O)C1CCCN(S(=O)(=O)N2CCOCC2)C1 (stereo not shown) | -1.6 |
| CNc1c(NC(=O)CCC(=O)O)c(C)nn1-c1ccccc1 | -5.81 |
| Cc1cc(=O)oc2c(C(=O)c3ccccc3)c(O)ccc12 | -3.06 |
| Cc1sc2nc(SCC(=O)NCCOCCO)nc(N)c2c1C | 14.8 |
| Cc1nc2ccn(Cc3cccs3)c(=O)c2cc1C(=O)NCC1CCCO1 (stereo not shown) | 1.28 |
| CCc1nn(CC(=O)NC2CCCCC2C)c(=O)c2cc3occc3n12 (stereo not shown) | 1.38 |
| COc1ccc(NC(=O)CSCc2ccc(C#N)cc2)c(OC)c1 | -2.8 |
| CCCC12CN3CC(C)(CN(C1)C3c1ccccc1C)C2=O (stereo not shown) | 5.44 |
| c1ccc(Cc2nnc3n2N=C(c2ccccc2)CS3)cc1 | -2.91 |
| C=CCn1c(=O)c(C(=O)NCc2ccncc2)c(O)c2ccccc21 | -0.643 |
| C=CCOc1ccccc1/C=c1\sc2nc(-c3ccccc3)nn2c1=O | -1.52 |
| C/C(=C\c1cccs1)C(=O)c1c(C)cc(C)nc1O | 3.47 |

| SMILES | % Inhibition @ 10 uM [%] |
| --- | --- |
| COc1ccc(CNC(=O)C(C)Oc2ccccc2)cc1 (stereo not shown) | -3.76 |
| CC(=O)N1CCN(c2ccc(NCc3ccc(F)cc3)cc2)CC1 | 0.59 |
| CC(=O)N/C(=C/c1ccccc1)C(=O)N1CCOCC1 | 0.545 |
| Cc1nc(C(=O)N[C@@H](CC(C)C)C(=O)NCC#N)nn1-c1ccc(Cl)cc1Cl | 5.76 |
| Cc1ccc(C)c(CN(CCCN(C)C)CCCN(C)C)c1 | -0.817 |
| N#Cc1c(NC(=O)c2cccc(OC(F)F)c2)sc2c1CCC2 | 3.72 |
| CC(C)CCNC(=O)c1nnc(-c2cccc(Cl)c2)o1 | -3.34 |
| COCCNC(=O)c1ccc(CS(=O)c2ccccc2OC)o1 (stereo not shown) | -4.96 |
| O=C(O)Cn1nnc(-c2cccc(C(F)(F)F)c2)n1 | -3.53 |
| CCOC(=O)C1=CN(C)C=C(C(=O)OCC)C1c1ccc(OC)cc1OC | -5.05 |
| Cc1ccc(C(=O)NCc2cccs2)cc1C | 3.67 |
| Cc1ccc(C(=O)CCC(=O)N2CCN(C(=O)c3ccco3)CC2)cc1 | -13 |
| OCC1OC(Oc2cccc(Cl)c2)C(O)C(O)C1O (stereo not shown) | 2.99 |
| Cc1ccc(N2C(=O)SC(Nc3ccccc3C(=O)O)C2=O)cc1 (stereo not shown) | 0.22 |
| c1cncc(-c2nc(NCc3ccco3)c3ccccc3n2)c1 | -1.06 |
| CCc1nnc(/N=C/c2cc(-c3ccccc3)oc2O)s1 | -4.84 |
| CCc1nnc2c3ccccc3nc(NCc3ccc(F)cc3)n12 | -3.28 |
| COc1ccc(OC)c(NC(=O)c2ccc(Cl)cc2)c1 | -6.27 |
| Cc1cc(C)cc(OCC(=O)N(Cc2ccccc2)C2CCS(=O)(=O)C2)c1 (stereo not shown) | -2.98 |
| O=C(COc1ccc(Cl)cc1Cl)Nc1ccc([N+](=O)[O-])cc1 | -4.35 |
| O=[N+]([O-])c1ccc(CNC23CC4CC(CC(C4)C2)C3)cc1 | -5.2 |
| O=C(O)c1ccc(C/N=c2/c(N3CCCC3)c(O)c2=O)cc1 | -5.47 |
| CN1CCC(N(C)Cc2cccs2)CC1 | -0.0404 |
| O=C1CC(Cc2ccc(Cl)cc2)C(=O)N1CCC12CC3CC(CC(C3)C1)C2 (stereo not shown) | -6.65 |
| CCCC(=O)N1C2=C(C(=O)c3ccccc32)C(c2ccc(Cl)cc2)c2c1n(C)c(=O)n(C)c2=O (stereo not shown) | -3.02 |

| SMILES | % Inhibition @ 10 uM [%] |
| --- | --- |
| Cc1cccc(NC(=O)NC2CCCCC2)n1 | 1.16 |
| Cc1nn(-c2ccccc2)c2c1C(c1ccc(Br)cc1F)C(C#N)=C(N)O2 (stereo not shown) | -0.988 |
| O=C(Nc1ccccc1)N1CCN(c2ccc([N+](=O)[O-])cc2)CC1 | -1.77 |
| COc1ccc(C2NC(c3ccc(OC)cc3OC)C(C)C(=O)C2C)c(OC)c1 (stereo not shown) | 1.83 |
| CCOc1ccc(CCNC(=O)c2noc3c2COc2ccccc2-3)cc1OCC | 80.8 |
| COC(=O)c1ccc(OCc2nn[nH]n2)cc1 | -2.05 |
| O=C(CN1C(=O)c2ccccc2C1=O)NC(c1ccccc1)c1ccccc1 | -0.357 |
| COc1cccc(-c2nc(O)c3c4c(sc3n2)CCCC4)c1 | 6.66 |
| CN(c1cccc(NS(=O)(=O)c2ccc3c(c2)OCCO3)c1)S(C)(=O)=O | 1.57 |
| O=C(Nc1cccc(Cl)c1Cl)c1cccc(Cl)c1 | -1.78 |
| O=C(CSc1nc(-c2ccccc2)cs1)Nc1ccccc1 | -5.1 |
| Cc1nonc1NC(=O)CSc1ncc(-c2ccccc2)n1-c1ccccc1 | -4.42 |
| COc1ccc(NC(=O)CN(c2ccc(OC)cc2)S(C)(=O)=O)cc1 | 0.324 |
| C=CCNC(=O)CC(NS(=O)(=O)c1ccc(F)cc1)c1ccc(OC)cc1 (stereo not shown) | -2.14 |
| Cc1ccc2oc(=O)c3cc(C(=O)NCCN4CCN(Cc5ccccc5)CC4)sc3c2c1 | -0.646 |
| Cc1cccc(Oc2nc3c(C)cccn3c(=O)c2/C=C(\C#N)c2nc3ccccc3[nH]2)c1 | -5.1 |
| CCc1nn(-c2cc(Oc3ccccc3)ncn2)c(N)c1C#N | 0.851 |
| O=C(Cn1c(=O)c2cccn2c2cccnc21)N1CCN(c2ccccn2)CC1 | -6.3 |
| COc1ccc(OC)c(NC(=O)CN(Cc2ccccc2)S(C)(=O)=O)c1 | -3.34 |
| CCn1nc(C)c(C(=O)Nc2ccn(Cc3ccccc3)n2)c1C | 3.21 |
| CCO/C(O)=C1\C(C)=NC2=C(C(=O)CC(C)(C)C2)C1c1ccccc1OC(C)C (stereo not shown) | 4.1 |
| O=C(CN1CCCCC1)Nc1c2c(nc3ccccc13)N(c1cccc(Cl)c1)CC2 | -1.54 |
| Cc1ccc(CN2CCN(C(=O)c3ccncc3)CC2)cc1 | -5.17 |
| CCN(CC)C(=O)CCn1cnc2onc(-c3ccc(F)cc3)c2c1=O | 2.76 |
| CC1CCCN(C(=O)NC2CCCCC2)C1 (stereo not shown) | -11.8 |

| SMILES | % Inhibition @ 10 uM [%] |
| --- | --- |
| CCCCN(C)C(=O)c1sc2nc3n(c(=O)c2c1C)CCCCC3 | -2.58 |
| O=C1CCN(C(=O)C2CCN(c3ncnc4c3nc3n4CCCCC3)CC2)CC1 | -1.46 |
| Cc1ccnc(NS(=O)(=O)c2c(C)cc(C)cc2C)c1 | -1.42 |
| Cc1ccsc1C1C=C(c2ccc(Br)cc2)Nc2nnnn21 (stereo not shown) | -5.19 |
| CC1CN(C2CCN(C)CC2)CC(C)O1 (stereo not shown) | -9.34 |
| Cc1cccc(C2=NN3C(=N)/C(=C\c4coc5ccccc5c4=O)C(=O)N=C3S2)c1 | 2.74 |
| COc1ccc(C2C(C#N)=C(C)N=C3CC(c4ccc(Cl)cc4)CC(O)=C32)cc1OC (stereo not shown) | 1.01 |
| CCOc1cc2c(cc1OCC)C1C(C(=O)NCc3ccc(F)cc3)c3ccccc3C(=O)N1CC2 (stereo not shown) | -5.29 |
| CCOc1ccc(CCNS(=O)(=O)c2ccc3nc(O)ccc3c2)cc1OCC | -0.901 |
| Cc1nc2nc(C)c(NS(=O)(=O)c3ccc(Cl)s3)c(O)n2n1 | 1.49 |
| COc1ccccc1OCC(=O)Nc1ccc(S(=O)(=O)Nc2ccc(C)cc2C)cc1 | 2.49 |
| Cc1ccc(NC(=O)Cn2ncc3c4ccccc4nc-3c2O)nc1 | -1.96 |
| CCC(C)NC(=O)CN1C(=O)c2ccccc2Sc2ncccc21 (stereo not shown) | -4.46 |
| COc1ccc(-c2cc(C(F)(F)F)n3nc(C(=O)N(C)Cc4cn(C)nc4C)c(Cl)c3n2)cc1 | 0.64 |
| COC(=O)C1(C)CC1(c1ccccc1)c1ccccc1 (stereo not shown) | -0.0369 |
| CC(=O)NC(C)(C)C1CC=C(C)/C(=N\O)C1 (stereo not shown) | -7.55 |
| COc1ccc(CNC(=O)c2cc(C(F)(F)F)nn2C)cc1OC | -3.07 |
| COc1cccc(-n2nnc3c(=O)n(CC(=O)NCC4CCCO4)cnc32)c1 (stereo not shown) | 1.24 |
| COc1cc(C2=NOC(C(=O)N3CCCCCC3)C2)cc(OC)c1OC (stereo not shown) | 1.24 |
| CC1=C(C#N)C(c2ccc(Br)cc2)C2=C(N1)c1ccccc1S2(=O)=O (stereo not shown) | -1.98 |
| COc1ccc(Nc2nn(-c3ccc(F)cc3)nc2C(C)=O)cn1 | -5.33 |
| O=C(NCC1CCCO1)c1ccc(N2C(=O)C3C4c5ccccc5C(c5ccccc54)C3C2=O)cc1 (stereo not shown) | -0.992 |
| CS(=O)(=O)N1CCN(c2ccc(NC(=O)c3cc4ccccc4o3)cc2)CC1 | -6.02 |
| COc1ccccc1CNC(=O)C1CCCN(c2nn3c(=O)cc(C)nc3s2)C1 (stereo not shown) | 1.38 |
| O=C(COc1ccccc1)NC1CC2CCC1C2 (stereo not shown) | -2.28 |

— publication PMC6919601, “Identification of Plasmodium dipeptidyl aminopeptidase allosteric inhibitors by high throughput screening” (PLoS ONE, 2019)
